Laboratory results taken from ChEMBL document CHEMBL4888484, “Replenishing the malaria drug discovery pipeline: Screening and hit evaluation of the MMV Hit Generation Library 1 (HGL1) against asexual blood stage Plasmodium falciparum ,using a nano luciferase reporter read-out” (2022).
Out of some 150,000 compounds screened, about 540 (0.36%) showed an effect of 50% or more. This is one part of the list.

system: Plasmodium falciparum; assay: Primary screen in NF54 nanoGlo assay, in single point, at 2uM, 72h; a lower Z score goes with more inhibition; format: functional, Erythrocyte; settings: timepoint 72 hour

Row | SMILES | % Inhibition | Z score
1 | Nc1cc(Cl)ccc1OC[C@H]1CCCCO1 | -6% | 1.15
2 | O=C(N[C@H]1COCC[C@@H]1O)c1ccc2nnnn2c1 | -21% | 1.83
3 | COc1ccc(CNC(=O)c2cc(-c3ccccc3)ns2)cc1 | -16% | 2
4 | C=CCCS(=O)(=O)NCc1ccncc1 | 32% | -4.68
5 | COc1ccc(CN(C)C(=O)NC(C)C)cc1O | 12% | -1.88
6 | COCCn1ccc2cc(C(=O)N[C@H]3CCCc4c3[nH]c3ccc(OC)cc43)ccc21 | -13% | 1.62
7 | CCc1nnc(CNS(=O)(=O)c2ccc(C(=O)N3CCCC3)cc2)s1 | -11% | 1.9
8 | CN(C)S(=O)(=O)N1CC[C@]23C(=O)N(CC(=O)NCCCOc4cccc(c4)[C@H]12)c1ccccc13 | -11% | 2.02
9 | CN1CCC(N2C[C@@H]3C[C@H]2C(=O)NC[C@H]2O[C@H](CCOc4cc(-c5ccccc5)ccc4C(=O)N3)CC[C@@H]2O)CC1 | 9% | -1.04
10 | CCc1nc(C)sc1CNC(=O)C(=O)c1ccco1 | -17% | 1.74
11 | Cc1cccc(OC[C@H]2CN(C(=O)Nc3ccccc3)CCO2)c1 | -6% | 0.62
12 | COCCN(C)C[C@@H]1C[C@H](CO)CN(C(=O)c2ccc(C)c(Cl)c2)C1 | -9% | 1.71
13 | CN(CCc1ccccn1)c1nncc(-c2ccccc2F)n1 | 3% | -0.33
14 | Cc1ccc(O[C@H]2CCOC[C@H]2NC(=O)CCc2scnc2C)cn1 | -10% | 1.12
15 | CS(=O)(=O)NCCn1nc(C2CC2)cc1C1CC1 | -23% | 2.96
16 | CN(CCc1ccccn1)c1ccc2c(c1)CNCC(=O)N1CC[C@@H](CC(=O)NCC3CC3)[C@@H](/C=C/CO2)C1 | -10% | 1.25
17 | OC[C@H]1CCCN(Cc2c(Cl)cccc2N2CCCC2)C1 | -14% | 1.38
18 | CC(=O)N1CCc2[nH]c3ccc(C(=O)N4CCN(C(C)C)CC4)cc3c2C1 | 4% | -0.62
19 | COc1cc(NS(=O)(=O)c2cc(CN3C(=O)C4CCCCC4C3=O)ccc2C)cc(OC)c1 (stereo unspecified) | 1% | -0.18
20 | COc1ccc2c(c1)[C@H](c1nc(-c3ccncc3)no1)CC(=O)N2 | -14% | 1.58
21 | CN(Cc1ccoc1)C(=O)c1ccncc1 | -6% | 1.05
22 | c1ncc(CNc2ccc(Cc3nnc4n3CCC4)cc2)s1 | -2% | 0.32
23 | O=C1[C@@H](Oc2nnc(-c3ccccc3)o2)CCN1CC(F)(F)F | -24% | 3.23
